# Reference: the antibiotic and cytotoxicity screens of Wong et al. (2023)
# The list shows a part of the results.
# Columns and labels:
# HSkMC = human skeletal muscle cells; experiment: cytotoxicity call (relative viability < 0.9); details: 10 µM
# HepG2 = experiment: cytotoxicity call (relative viability < 0.9); details: 10 µM
# S. aureus RN4220 = experiment: growth inhibition call (relative growth <= 0.2); details: 50 µM
SMILES,cytotoxicity call (HSkMC),cytotoxicity call (HepG2),growth inhibition call (S. aureus RN4220)
C[C@H]1O[C@@H]2[C@H](O[C@@H]1C)N(S(C)(=O)=O)CCN2S(C)(=O)=O,inactive,inactive,inactive
NC(=O)CCNCc1ccccc1,inactive,inactive,inactive
COc1ccc([C@@H]([C@H](Cc2ccccc2)OC(C)=O)N2C[C@H](CC(=O)N(C)C)[C@@H]3C(=NO[C@H]3c3ccccc3)[C@@H]2Cc2ccccc2)cc1,inactive,inactive,inactive
C[C@H](CO)N1C[C@H](C)[C@@H](CN(C)Cc2ccc3c(c2)OCO3)Oc2c(NC(=O)c3ccc(-c4nccs4)cc3)cccc2C1=O,inactive,inactive,inactive
Cc1nnsc1C(=O)NCC1(O)CCCC1,inactive,inactive,inactive
C[C@@H]1CCCCO[C@@H](CN(C)Cc2ccncc2)[C@@H](C)CN([C@@H](C)CO)C(=O)c2cc(NS(=O)(=O)c3ccc(Cl)cc3)ccc2O1,inactive,inactive,inactive
C[C@@H]1CN([C@@H](C)CO)C(=O)c2cccc(NC(=O)CCCCCC(=O)Nc3ccccc3N)c2O[C@H]1CN(C)C(=O)Nc1ccccc1,inactive,inactive,inactive
COc1ccc2c3c(n(c2c1)C)[C@H](CO)N(Cc1cc(cc(c1)OC)OC)C[C@]13CCN(CC1)C(=O)CN1CCOCC1,inactive,inactive,inactive
C[C@@H]1CN([C@@H](C)CO)C(=O)Cc2cc(NC(=O)C3CCCCC3)ccc2O[C@@H]1CN(C)Cc1ccc(C(=O)Nc2ccccc2N)cc1,inactive,inactive,inactive
COc1ccc(S(=O)(=O)N(C)C[C@@H]2Oc3ccc(NC(=O)CCC(F)(F)F)cc3CC(=O)N([C@H](C)CO)C[C@H]2C)cc1,inactive,inactive,inactive
C[C@H]1CN([C@@H](C)CO)C(=O)c2cc(NC(=O)CCCCCC(=O)Nc3ccccc3N)ccc2O[C@H]1CN(C)C(=O)Nc1ccc(C(F)(F)F)cc1,inactive,active,inactive
C[C@H](CO)N1C[C@H](C)[C@H](CN(C)C(=O)Nc2ccccc2)Oc2c(NC(=O)Nc3ccc(C(F)(F)F)cc3)cccc2C1=O,inactive,inactive,inactive
O=C1c2ccccc2[C@](Cc2ccccc2I)(C(=O)O)[C@H](c2ccc(CO)cc2)N1C1CCCCC1,inactive,inactive,inactive
CN(C)c1ccc(O)c2c1C[C@H]1C[C@H]3[C@H](N(C)C)C(=O)C(C(N)=O)=C(O)[C@@]3(O)C(=O)[C@H]1C2=O,inactive,inactive,inactive
O=C(NO)c1ccc(C(=O)N/N=C/[C@H](O)[C@@H](O)[C@H](O)CO)cc1,inactive,inactive,inactive
C[C@@H]1CN([C@@H](C)CO)C(=O)c2cccc(NC(=O)Nc3cccc4ccccc34)c2O[C@H]1CN(C)C(=O)Nc1ccc2c(c1)OCO2,inactive,inactive,inactive
COc1cccc(NC(=O)N(C)C[C@H]2Oc3cc(Br)ccc3S(=O)(=O)N([C@H](C)CO)C[C@H]2C)c1,inactive,inactive,inactive
Cc1cc2c(s1)Nc1ccccc1N=C2N1CCN(C)CC1,inactive,inactive,inactive
COc1ccccc1CNC(=O)C[C@@H]1CC[C@H]2[C@@H](COC[C@H](O)CN2C(=O)Nc2ccc(Cl)cc2)O1,inactive,inactive,inactive
C[C@H](CO)N1C[C@H](C)[C@@H](CN(C)Cc2ccc(C(F)(F)F)cc2)Oc2ccc(NC(=O)Cn3cnnn3)cc2CC1=O,inactive,inactive,inactive

SMILES,cytotoxicity call (HSkMC),cytotoxicity call (HepG2),growth inhibition call (S. aureus RN4220)
O=C(C[C@@H]1C[C@@H]2c3cc(NC(=O)Nc4ccc(C(F)(F)F)cc4)ccc3O[C@@H]2[C@@H](CO)O1)NCc1cc(F)ccc1F,inactive,inactive,inactive
O=C(C[C@@H]1C[C@H]2c3cc(NC(=O)c4ccc5c(c4)OCO5)ccc3O[C@H]2[C@@H](CO)O1)NCCN1CCCCC1,inactive,inactive,inactive
COc1cc(O)cc(O)c1C(=O)c1ccccc1,inactive,active,inactive
COc1ccc([Si](C)(C)[C@H]2[C@H](CCO)O[C@@]3(C(=O)N(Cc4ccc(N(C=O)c5ccccc5)cc4)c4ccccc43)[C@@H]2C)cc1,inactive,active,inactive
Cn1cnc(CCNC(=O)C[C@@H]2CC[C@@H]3[C@H](COC[C@H](O)CN3C(=O)Nc3ccc(C(F)(F)F)cc3)O2)c1,inactive,inactive,active
Cc1cc(C(=O)Nc2cccc3c2O[C@@H](CN(C)S(=O)(=O)c2cn(C)cn2)[C@@H](C)CN([C@@H](C)CO)C3=O)n(C)n1,inactive,inactive,inactive
C[C@H]1CN([C@@H](C)CO)S(=O)(=O)c2ccc(C#CCN(C)C)cc2O[C@@H]1CN(C)Cc1ccncc1,inactive,inactive,inactive
Nc1ncnc(Cl)c1N,inactive,inactive,inactive
COc1cccc(S(=O)(=O)Nc2ccc3c(c2)[C@H]2C[C@H](CC(=O)NCc4ccccc4F)O[C@H](CO)[C@H]2O3)c1,inactive,inactive,inactive
COC(=O)[C@@H]1[C@@H](CO)[C@@H]2Cn3c(ccc(-c4cncnc4)c3=O)[C@@H]2N1C(=O)C1CCC1,inactive,inactive,inactive
C[C@@H]1CN([C@@H](C)CO)C(=O)c2cc(N(C)C)ccc2O[C@@H]1CN(C)S(=O)(=O)c1ccc(Cl)cc1,inactive,inactive,inactive
COc1cccc(S(=O)(=O)Nc2ccc3c(c2)[C@@H]2C[C@@H](CC(=O)N4CCCCC4)O[C@@H](CO)[C@@H]2O3)c1,inactive,inactive,inactive
Cc1noc(C)c1S(=O)(=O)N(C)C[C@H]1Oc2ccc(NC(=O)CCCN(C)C)cc2C(=O)N([C@H](C)CO)C[C@@H]1C,inactive,inactive,inactive
CCc1c(C)[nH]c2c1C(=O)C(CN1CCOCC1)CC2.Cl (centres undefined),inactive,inactive,inactive
C=CCc1ccccc1OCC(O)CNC(C)C.Cl (centres undefined),inactive,active,inactive
C[C@H]1CN([C@@H](C)CO)C(=O)c2cc(NC(=O)C3CC3)ccc2O[C@H]1CN(C)Cc1ccc2c(c1)OCO2,inactive,inactive,inactive
C[C@H]1CN([C@@H](C)CO)C(=O)c2cccc(NS(=O)(=O)c3cn(C)cn3)c2O[C@H]1CN(C)S(=O)(=O)c1ccc(F)cc1,inactive,inactive,inactive
Cc1ccc(S(=O)(=O)N(C)C[C@@H]2OCCCC[C@@H](C)Oc3ccc(NS(=O)(=O)c4ccc(F)cc4)cc3C(=O)N([C@@H](C)CO)C[C@H]2C)cc1,inactive,inactive,inactive
CC(C)C(=O)NCc1ccnc(N(C)C)n1,inactive,inactive,inactive
C[C@@H]1CN([C@@H](C)CO)C(=O)Cc2cc(NC(=O)c3ccncc3)ccc2O[C@H]1CN(C)Cc1ccc(C(=O)O)cc1,inactive,inactive,inactive

SMILES,cytotoxicity call (HSkMC),cytotoxicity call (HepG2),growth inhibition call (S. aureus RN4220)
C[C@@H]1CN([C@H](C)CO)C(=O)Cc2cc(NC(=O)Cc3cn(C)c4ccccc34)ccc2O[C@@H]1CN(C)Cc1ccc(Cl)c(Cl)c1,inactive,active,inactive
C[C@H]1CN([C@@H](C)CO)C(=O)c2cc(NC(=O)Nc3ccc4c(c3)OCO4)ccc2O[C@@H]1CN(C)Cc1ccc(-c2ccccc2)cc1,inactive,active,inactive
O=C(CN1C(=O)CSC1=O)N1CCCC1,inactive,inactive,inactive
C=CCN(Cc1ccccc1)C(=O)[C@@H]1N(CCOCCO)C(=O)[C@@H]2[C@H](C(=O)O)[C@@H]3C=C[C@@]21O3,inactive,inactive,inactive
NNCCc1ccccc1.O=S(=O)(O)O,inactive,inactive,inactive
C[C@H]1CN([C@@H](C)CO)S(=O)(=O)c2ccc(-c3cncnc3)cc2O[C@@H]1CN(C)C(=O)Cc1ccccc1,inactive,inactive,inactive
C[C@@H]1CN([C@H](C)CO)C(=O)c2cc(NC(=O)Cc3cn(C)c4ccccc34)ccc2O[C@@H]1CN(C)S(=O)(=O)c1cn(C)cn1,inactive,inactive,inactive
C[C@@H]1CCCCO[C@H](CN(C)S(=O)(=O)c2ccc(Cl)cc2)[C@H](C)CN([C@H](C)CO)C(=O)c2cc(NS(=O)(=O)c3ccccc3)ccc2O1,inactive,inactive,inactive
CN1C(=O)c2cc(NC(=O)C3CCOCC3)ccc2OC[C@@H]2O[C@H](CC(=O)NCc3ccc4c(c3)OCO4)CC[C@H]21,inactive,inactive,inactive
COc1ccc(CN(C)C[C@@H]2Oc3c(NS(=O)(=O)c4cn(C)cn4)cccc3C(=O)N([C@@H](C)CO)C[C@H]2C)cc1,inactive,inactive,inactive
C[C@@H]1CN([C@H](C)CO)C(=O)c2cc(NC(=O)CCCCCC(=O)Nc3ccccc3N)ccc2O[C@@H](C)CCCCO[C@@H]1CN(C)C(=O)Cc1ccccc1,inactive,inactive,inactive
COCC(=O)N[C@H]1C=C[C@H](CC(=O)N2CCCCC2)O[C@@H]1CO,inactive,inactive,inactive
C[C@@H]1CN([C@H](C)CO)C(=O)c2cc(NS(=O)(=O)c3cn(C)cn3)ccc2O[C@H]1CN(C)Cc1ccccc1,inactive,inactive,inactive
COCC#Cc1ccc2c(c1)O[C@@H](CN(C)S(=O)(=O)c1cccc(OC)c1)[C@@H](C)CN([C@@H](C)CO)S2(=O)=O,inactive,inactive,inactive
Cc1ccc(-c2nn[nH]n2)n1C,inactive,inactive,inactive
CN(C)CCN1CCO[C@@H]2CN(Cc3cnn(C)c3)C[C@@H]21,inactive,inactive,inactive
C[C@@H]1CN([C@H](C)CO)C(=O)c2cc(NC(=O)c3ccccc3)ccc2O[C@@H](C)CCCCO[C@H]1CN(C)C(=O)Nc1ccc2c(c1)OCO2,inactive,inactive,inactive
Cc1noc(C)c1S(=O)(=O)N(C)C[C@@H]1Oc2ccc(NC(=O)Nc3ccc4c(c3)OCO4)cc2C(=O)N([C@@H](C)CO)C[C@@H]1C,inactive,inactive,inactive
